Cytotoxicity call and growth inhibition call data for 32 compounds are collected here from the antibiotic and cytotoxicity screens of Wong et al. (2023).

The structures appear in SMILES notation. Some of the results follow.

For one test, the system named is HepG2. Briefly: cytotoxicity call (relative viability < 0.9). The settings on record: 10 µM.
For the compound `C[C@H](CO)N1C[C@H](C)[C@@H](CN(C)C(=O)Nc2ccc3c(c2)OCO3)Oc2ccc(NS(=O)(=O)c3cn(C)cn3)cc2CC1=O`, the cytotoxicity call was “inactive”.

On to `COc1ccccc1OCCNCC(O)COc1cccc2[nH]c3ccccc3c12` (configuration not stated), for which the cytotoxicity call is “active”. Regarding `CCc1nc2c(OCC(=O)c3ccc(Cl)cc3Cl)cccn2c1N(C=O)Cc1ccc(OC)cc1`, the cytotoxicity call is “inactive”. `CN(C)CCc1cc(Br)c(OCCCNC(=O)/C=C/c2cc(Br)c(OCCN3CCCC3)c(Br)c2)c(Br)c1`: the cytotoxicity call was “active”. On to `C[C@H](CO)N1C[C@H](C)[C@@H](CN(C)S(=O)(=O)c2ccc(F)cc2)Oc2ccc(NC(=O)Nc3ccc(C(F)(F)F)cc3)cc2C1=O`, for which the cytotoxicity call was “inactive”. On the same count and under the same terms, to `COc1ccc2[nH]c(=O)[nH]c(=O)c2c1` belongs “active”; to `Cc1ccc(N2C(=O)C(=O)NC2=S)cc1`, “inactive”.

As for `CCn1c(C)cc(C)c(C(=O)N2C[C@H]3C(=O)NC[C@@]3(C(=O)O)C2)c1=O`, the cytotoxicity call was “inactive”. Turning to `CCN1C(C)(C)CC(Oc2ccc(C(=O)Nc3ccc(NC(=O)Nc4cc(C(C)(C)C)on4)cc3)nc2)CC1(C)C`, the cytotoxicity call is “active”. Same read-out and setting: to `O=C(C[C@H]1CC[C@H](NC(=O)Nc2ccc3c(c2)OCO3)[C@H](CO)O1)NCCCN1CCOCC1` belongs “inactive”.

In the next test the test system is S. aureus RN4220. Kind of test: growth inhibition call (relative growth <= 0.2). Particulars: 50 µM.
As to `C[C@H]1CN([C@@H](C)CO)C(=O)c2cc(NC(=O)Nc3ccccc3)ccc2O[C@H]1CN(C)CC1CCCCC1`, the growth inhibition call was “inactive”. Consider `C[C@H]1CCCCO[C@@H](CN(C)C(=O)Nc2ccccc2)[C@@H](C)CN([C@@H](C)CO)C(=O)c2cc(NS(=O)(=O)c3ccc(F)cc3)ccc2O1`, for which the growth inhibition call was “inactive”. As to `Cc1ccc(Cn2nnc3c(=O)n(CC(N)=O)cnc32)cc1`, the growth inhibition call was “inactive”. In the case of `Cc1noc(C)c1NC(=O)N(C)C[C@H]1Oc2ncc(C#CCN(C)C)cc2C(=O)N([C@@H](C)CO)C[C@H]1C`, the growth inhibition call was “inactive”.

`COc1ccc(NC(=O)N(C)C[C@@H]2Oc3c(NC(=O)C4CC4)cccc3C(=O)N([C@H](C)CO)C[C@H]2C)cc1`: the growth inhibition call was “inactive”. For `C[C@@H]1CN([C@@H](C)CO)S(=O)(=O)c2ccc(C#CC3(O)CCCC3)cc2O[C@@H]1CN(C)C(=O)Nc1ccc(F)cc1`, the growth inhibition call was “inactive”. Same read-out and setting: the same measure for `C[C@H]1CN([C@@H](C)CO)C(=O)c2cc(NC(=O)Cn3cnnn3)ccc2O[C@H]1CN(C)Cc1ccc(C(=O)Nc2ccccc2N)cc1`: “inactive”. Same read-out and setting: to `Cc1cc(C(=O)Nc2cccc3c2O[C@@H](CN(C)S(=O)(=O)c2c(C)noc2C)[C@@H](C)CN([C@@H](C)CO)C3=O)n(C)n1` belongs “inactive”; to `CC(C)NC(=O)N(C)C[C@@H]1Oc2c(NS(=O)(=O)c3ccc(Cl)cc3)cccc2C(=O)N([C@H](C)CO)C[C@H]1C`, “inactive”; to `N#Cc1ccc(NCCNC(=N)N)nc1`, “inactive”. As to `COc1ccc(NC(=O)Nc2ccc3c(c2)C(=O)N([C@@H](C)CO)C[C@H](C)[C@H](CN(C)Cc2ccc(Oc4ccccc4)cc2)O3)cc1`, the growth inhibition call is “inactive”. Consider `C[C@H](CO)N1C[C@H](C)[C@@H](CN(C)C(=O)CCCN(C)C)OCCCC[C@H](C)Oc2ccc(NC(=O)Nc3ccc(F)cc3)cc2C1=O`, for which the growth inhibition call is “inactive”. As for `CC(C)CC#Cc1ccc2c(c1)O[C@H](CN(C)C(=O)Cc1cccnc1)[C@@H](C)CN([C@@H](C)CO)S2(=O)=O`, the growth inhibition call was “inactive”.

Turning to `COc1ccc(COCCN2C[C@@H](C)[C@H](CN(C)S(=O)(=O)c3ccc(F)cc3)OCCCC[C@H](C)Oc3ccc(NC(=O)Nc4ccccc4)cc3C2=O)cc1`, the growth inhibition call is “inactive”. As to `COC(=O)[C@H]1[C@H](CO)[C@H]2Cn3c(cccc3=O)[C@H]2N1C(=O)C1CC1`, the growth inhibition call is “inactive”. For the compound `CC1(C)C(=O)C2CC3(O)C4=CC(=O)OC(c5ccoc5)C4(C)CCC3C(C)(C2=O)C1CC(=O)O` (configuration not stated), the growth inhibition call is “inactive”. As for `COc1ccc(S(=O)(=O)Nc2cccc3c2O[C@@H](CN(C)S(=O)(=O)c2c(C)noc2C)[C@H](C)CN([C@@H](C)CO)C3=O)cc1`, the growth inhibition call was “inactive”. On the same count and under the same terms, the same measure for `C[C@@H]1CN([C@H](C)CO)S(=O)(=O)c2ccc(C3=CCCC3)cc2O[C@@H]1CN(C)S(=O)(=O)c1ccc(F)cc1`: “inactive”; for `Cc1noc(C)c1S(=O)(=O)Nc1ccc2c(c1)CC(=O)N([C@@H](C)CO)C[C@H](C)[C@H](CN(C)S(=O)(=O)c1ccc(Cl)cc1)O2`: “inactive”. On the same count and under the same terms, to `C[C@H]1CN([C@@H](C)CO)C(=O)c2cc(C#CC3CC3)cnc2O[C@@H]1CN(C)S(=O)(=O)c1cccc(F)c1` belongs “inactive”; to `C[C@@H]1CN([C@@H](C)CO)C(=O)Cc2cc(NS(=O)(=O)c3cn(C)cn3)ccc2O[C@H]1CN(C)Cc1ccccc1`, “inactive”. The same measure, in the same setting: the same measure for `COCCNC(=O)C[C@H]1CC[C@H]2[C@@H](COC[C@@H](O)CN2C(=O)Nc2ccc3c(c2)OCO3)O1`: “inactive”.
